The other results are listed elsewhere or left out.
T1: UNK ZnF1-3 (human, UniProt Q9C0B0 31-174)
T1 sequence: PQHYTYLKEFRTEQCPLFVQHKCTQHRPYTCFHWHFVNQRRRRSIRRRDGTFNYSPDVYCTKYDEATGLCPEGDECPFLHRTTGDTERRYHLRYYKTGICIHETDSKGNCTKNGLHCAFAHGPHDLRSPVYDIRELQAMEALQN

B1: chr4:17845017:17845018:+_ENSG00000109805_ENST00000514176|hu_mus|hu_hu_hu_mus_False|18_78 (ssRNA)
RNA: GGGAGUUCUACAGUCCGACGAUCGCUCUCUUAACUUGUAUCUUCAUUAAGGAACUCGCAAGGUUAAAGUUUACUUUUCUGUAGCGCAGCUGUUUUGGCUCGUCUGGGUAAUCUCAUUUCAUUUCUGGAUGGUGGUUCAUGAUCCAACAGAGGAUUGAGCAUCA
B2: chr18:33598288:33598289:-_ENSMUSG00000042834_ENSMUST00000171533|mus_hu|FALSE|FALSE (ssRNA)
RNA: GGGAGUUCUACAGUCCGACGAUCAGUCAGAAUGAUUAAAAACUGGUUUGAUGACACCUAUUUGUCCACUGUAAAUUCUCUAAAGCAAGGCUCAGAGUCCCAUAGUUUCUUCUUAUACUUGAUGAUUUACACAGAAAAAAAUCCCAACAGAGGAUUGAGCAUCA
B3: chr4:95585135:95585136:+_ENSG00000163110_ENST00000317968|hu_mus|FALSE|FALSE (ssRNA)
RNA: GGGAGUUCUACAGUCCGACGAUCUUUGCAAAGUGGCUUGUCCUUCUUGGAGAAAAAUGUCUGCCCUUCCAAACUUUCACAACACACAGAGCACACAAAGCAAGUAUCAUGCCAAGUGUAUCCCAGAGCUUCCAGGAACAUGUCCAACAGAGGAUUGAGCAUCA
B4: chr17:37075478:37075479:+_ENSG00000002834_ENST00000318008|hu_mus|FALSE|FALSE (ssRNA)
RNA: GGGAGUUCUACAGUCCGACGAUCGAGGCAGAGAGUCAGGAAGAUGGACUAGGGCAAAGGUCAGCACGAGGCCUUAAUACCGACCCCCUGGGGAUGUGUGGAGCCACACCUGGAGGUAUGAGGAGGACACAGCUCACCCCAGCUCAACAGAGGAUUGAGCAUCA
B5: chr9:119461815:119461816:+_ENSG00000119401_ENST00000373983|hu_hu|FALSE|FALSE (ssRNA)
RNA: GGGAGUUCUACAGUCCGACGAUCCUUAGGAGUUAGGGCUAUGCCCACCGGACAGGUAAGUCCCUCUCGAAUAAGGACACUAUAGCCCCCACCCUUAGGAAAAUGGAGAAUUUCCUUGCGACUACUGUCAGCCACGAUGAGAUCCAACAGAGGAUUGAGCAUCA
B6: chr7:135839593:135839594:+_ENSMUSG00000042105_ENSMUST00000151237|mus_mus|FALSE|FALSE (ssRNA)
RNA: GGGAGUUCUACAGUCCGACGAUCCUGAGAGUCAGUUAACCAGAGUAAGGCUCUAAAGGAUGCCAGAGACAUUGAUACCUGCUAGAAUAUGCCUACAGCUUUCUCACUCUGGGUUACAGAAGAGGUUCUUGGUGGUUAGUUACUCAACAGAGGAUUGAGCAUCA
B7: 43401038_43402418_1595_CDS_ENSG00000124574_ENST00000372530|human|control|control (ssRNA)
RNA: GGGAGUUCUACAGUCCGACGAUCUGCCUGCUCCCACCCGCAGAACUUGAUGACCCGAAUGCCACUCAGCAGCUCUGUCACAAGCUUAACCCGCGCAUCCUUGUGCUGUAGCAUUUCCUGGUUGCUGGCCAUGAUGCGGGUGGCCAACAGAGGAUUGAGCAUCA
B8: chr1:109605286:109605287:-_ENSG00000197780_ENST00000461096|hu_hu|FALSE|FALSE (ssRNA)
RNA: GGGAGUUCUACAGUCCGACGAUCAUAAACAAUAACAUUCAGUGAUCUACUUAAAUCCAAUUGUAAUCCUUACUUUAAACUAAGGGCAAUAAUAAUUUAAUACAUAGAGUAAAUACACACAAAACCUGUGUAUUCAGAACUACACAACAGAGGAUUGAGCAUCA
B9: chr20:7962013:7962014:-_ENSG00000125827_ENST00000246024|hu_hu|motif|central (ssRNA)
RNA: GGGAGUUCUACAGUCCGACGAUCGAGGACUUCUGGCUUGAAAAAUAUUGCUUAGAAAACUUAAAAAAAAAUCAACAACAACGGUAUUUUGGACAAAACAAUUUUUUUUUAAUCUGUCUUGUAAAAUCCUUACUUCCUUUUGAGCAACAGAGGAUUGAGCAUCA
B10: chr13:100191535:100191536:-_ENSMUSG00000052727_ENSMUST00000064762|mus_mus|motif|central (ssRNA)
RNA: GGGAGUUCUACAGUCCGACGAUCAGAGGGGAUAUUGCACACAAAUAUCAUAAAAGCACUACAUAUUACUUUCACUGGAAACGGAUUUUUCUACAUUAGAUAUGACUGGAUAGGAUGGAAGUGAUGCAGGAUUAUAAGACAUAACAACAGAGGAUUGAGCAUCA
B11: chr8:125728745:125728746:-_ENSMUSG00000000743_ENSMUST00000000759|mus_hu|FALSE|FALSE (ssRNA)
RNA: GGGAGUUCUACAGUCCGACGAUCGGCAGGUUUUCCUCACAGCAGCCCCAACCCCAGCCCAGCUGAAGACGGCUCUCCUGAGCUCCCUUCAUCAGCUGCCUUGGCUUCCAAGCUGGGAAGGCAUUGGGGUGUGGUCGGGGAAGGCAACAGAGGAUUGAGCAUCA
B12: chr11:10818680:10818681:-_ENSG00000110321_ENST00000525681|hu_hu|FALSE|FALSE (ssRNA)
RNA: GGGAGUUCUACAGUCCGACGAUCUAUAUAAAAUCAGGGCAUGAACAUGACUUGAUAAAUUAAGUAGACUUAAUUUCAAUACUAUAAUAGGAGGGACCAAUUCAAAUUCUCACCAUUUGUUUCACACCCACAAAAACCACUUCACAACAGAGGAUUGAGCAUCA
B13: chr1:32384726:32384727:-_ENSG00000184007_ENST00000602725|perfect_dup|motif|central (ssRNA)
RNA: GGGAGUUCUACAGUCCGACGAUCAAAAAAAAAUCAAUAAAUCUUGAAAUGUUUCACAGCAGAAAACAUUAAAAAGACCACGGAAAUGCCUAUUAUCAAUCAGUGUUUUCUCUAUUCAACUUGUUUAUUCCUUAUGAAGCUUCUCAACAGAGGAUUGAGCAUCA
B14: chr16:46708560:46708561:-_ENSG00000069329_ENST00000568784|perfect_dup|FALSE|FALSE (ssRNA)
RNA: GGGAGUUCUACAGUCCGACGAUCCAAAAAGUUUAAUAUCCGCUGGGAUUCCAGGUCCAUCUUCACGGUGAGCAAAUAAAGCUAAUCUAUCAAUUAAAGCAAUGAUUAUGUUCUUCACAUUUACAUUCUGGUGUAACUCAGCACCAACAGAGGAUUGAGCAUCA

Target: T1, UNK ZnF1-3
Test: nsRBNS (natural sequence RNA bind-n-seq); RBNS binding buffer (assumed for nsRBNS): 25 mM Tris pH 7.5, 150 mM KCl, 3 mM MgCl2, 0.01% Triton X-100, 500 ug/ml BSA, 20 U/ml SUPERase-In, 4 C; UNK is unkempt and MSI1 is Musashi-1; names of the RNAs are library labels; protein concentration not given here; high values mean tight binding

Binder	binding signal [enrichment R]
B1	0.441
B2	0.849
B3	1.42
B4	1.27
B5	0.489
B6	1.08
B7	0.602
B8	0.608
B9	1.05
B10	1.56
B11	0.402
B12	2.15
B13	1.03
B14	1.15

Source: paper PMC12136788
